These results are taken from paper PMC4336329 (PLoS ONE, 2015).

Each structure is given as a SMILES string. Screen size: about 310,000 compounds; about 14,000 (4.5%) showed an effect of 50% or more. The effect is printed as a negative number. Some of the results follow.
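Further: peak tail current of the secondary pulse compared with the same well before compound.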

Sequence of human ether-à-go-go-related gene (hERG) potassium channel (Q12809 whole entry, looked up): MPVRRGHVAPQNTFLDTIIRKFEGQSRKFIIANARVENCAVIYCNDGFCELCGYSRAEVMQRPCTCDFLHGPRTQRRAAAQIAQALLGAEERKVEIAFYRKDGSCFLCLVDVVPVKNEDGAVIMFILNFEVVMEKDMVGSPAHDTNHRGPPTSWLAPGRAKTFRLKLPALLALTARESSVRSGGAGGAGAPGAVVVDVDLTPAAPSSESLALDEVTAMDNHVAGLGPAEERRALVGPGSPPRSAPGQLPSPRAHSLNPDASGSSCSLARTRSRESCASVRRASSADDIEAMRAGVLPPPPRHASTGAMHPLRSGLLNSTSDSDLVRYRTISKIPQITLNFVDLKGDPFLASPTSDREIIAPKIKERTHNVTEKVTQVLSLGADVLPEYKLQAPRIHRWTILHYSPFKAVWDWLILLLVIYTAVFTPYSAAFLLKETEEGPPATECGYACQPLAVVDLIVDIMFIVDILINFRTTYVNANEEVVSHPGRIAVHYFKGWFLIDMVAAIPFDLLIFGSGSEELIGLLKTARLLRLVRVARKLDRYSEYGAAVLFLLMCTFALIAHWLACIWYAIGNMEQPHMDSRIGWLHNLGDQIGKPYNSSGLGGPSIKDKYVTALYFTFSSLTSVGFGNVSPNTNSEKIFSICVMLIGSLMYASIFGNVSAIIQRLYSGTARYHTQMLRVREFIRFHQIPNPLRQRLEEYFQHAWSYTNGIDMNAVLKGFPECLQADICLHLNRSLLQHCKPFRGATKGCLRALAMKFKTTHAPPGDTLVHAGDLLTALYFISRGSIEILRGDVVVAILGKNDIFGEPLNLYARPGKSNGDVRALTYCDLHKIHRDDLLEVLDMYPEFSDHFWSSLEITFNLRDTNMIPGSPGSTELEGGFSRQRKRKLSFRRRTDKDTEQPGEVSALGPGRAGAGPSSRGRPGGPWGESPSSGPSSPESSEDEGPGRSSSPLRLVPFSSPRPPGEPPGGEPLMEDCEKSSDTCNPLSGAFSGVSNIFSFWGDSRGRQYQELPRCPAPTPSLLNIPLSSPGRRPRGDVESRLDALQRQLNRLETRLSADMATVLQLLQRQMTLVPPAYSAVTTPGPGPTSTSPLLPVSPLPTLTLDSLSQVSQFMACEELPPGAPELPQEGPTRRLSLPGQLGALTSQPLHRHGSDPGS

This experiment concerns the target human ether-à-go-go-related gene (hERG) potassium channel (human, UniProt Q12809). The experiment in a line: primary screen, population patch clamp on CHO cells stably expressing hERG.
For `Fc1ccc(OCCOCCN2CCNCC2)cc1.O=C(O)C(=O)O`, the “hERG current change (%, negative = inhibition) at 10uM” value is listed as 6.98%.
`O=C(CCC(=O)c1cccs1)NCc1ccncc1`: the “hERG current change (%, negative = inhibition) at 10uM” value worked out at 17.2%.
Regarding `CCOC(=O)Cn1cc(-c2ccccc2)nn1`, the “hERG current change (%, negative = inhibition) at 10uM” value is reported as -5.79%.
The value for `Cc1ccc(-n2[nH]c(C)c(/C=N/N3C(=O)c4cccc5cccc(c45)C3=O)c2=O)cc1` was -17%; that for `Nn1c(SCc2ccc(Br)cc2)nnc1-c1ccccn1` was 17.5%; that for `COC(=O)C(C)Sc1nnc(Cc2cc(=O)[nH]c(=O)[nH]2)n1-c1cc(C)ccc1C` (stereo not drawn) was 6.3%.
For `CCOC(=O)C1=C(N)n2c(s/c(=C/c3ccco3)c2=O)=C(C(=O)OC)C1c1ccco1` (stereo not drawn), the “hERG current change (%, negative = inhibition) at 10uM” value is listed as -2.57%.
As for `O=C(O)CCCCCNS(=O)(=O)c1ccc2c(c1)OCCO2`, the “hERG current change (%, negative = inhibition) at 10uM” value was determined as 19%.
The same measure for `O=C(NC1CS(=O)(=O)CC1NCc1ccco1)c1ccccc1` (stereo not drawn): 2.09%.
As for `CN(CCC1CCOCC1)C(=O)CC1C(=O)NCCN1C/C=C/c1ccccc1` (stereo not drawn), the “hERG current change (%, negative = inhibition) at 10uM” value is 21.3%.
In the case of `Cc1ccc(C(=O)COC(=O)CNC(=O)c2cccs2)cc1C`, the “hERG current change (%, negative = inhibition) at 10uM” value was -22%.
With `CC(C)CNc1nnnc2c1sc1nc(N3CCOCC3)c3c(c12)CC(C)(C)SC3`, the “hERG current change (%, negative = inhibition) at 10uM” value is on record as -20.8%.
Take `CN1CCN(NC(=O)c2ccc(S(=O)(=O)N3CCCCCC3)cc2)CC1.Cl`: the “hERG current change (%, negative = inhibition) at 10uM” value was found to be 8.34%.
Regarding `COc1ccc(C(C#N)(CCC#N)CCC#N)cc1OC`, the “hERG current change (%, negative = inhibition) at 10uM” value is given as -11.3%.
The value for `CC(NS(=O)(=O)c1ccc([N+](=O)[O-])cc1)C(c1cccs1)N1CCOCC1` (stereo not drawn) was -29.9%.
Turning to `Cc1cc(=O)oc2cc(NC(=O)c3ccccc3C(=O)O)ccc12`, the “hERG current change (%, negative = inhibition) at 10uM” value is recorded as 15.7%.
As for `Cc1ccc(NC(=O)CC2OC(=O)c3ccccc32)cc1S(=O)(=O)N1CCOCC1` (stereo not drawn), the “hERG current change (%, negative = inhibition) at 10uM” value is reported as -14.5%.
On to `COC(=O)c1[nH]c2cccc(OC)c2c1NC(=O)CCN1CCSCC1`, for which the “hERG current change (%, negative = inhibition) at 10uM” value is 22%.
Regarding `CCc1nnc(NC(=O)c2ccc(S(=O)(=O)NCC(C)C)cc2)s1`, the “hERG current change (%, negative = inhibition) at 10uM” value is 6.37%.
Consider `COc1ccccc1N1CCN(c2nc3ccccc3nc2C(C#N)C(=O)OC(C)C)CC1` (stereo not drawn), for which the “hERG current change (%, negative = inhibition) at 10uM” value is recorded as -12%.
The same measure for `Cc1cccc(C)c1OCC(O)CN.Cl.O` (stereo not drawn): 4.14%; for `CCC(=O)OCC(=O)Nc1ncc(C(F)(F)F)cc1Cl`: -1.65%; for `COc1ccc(CC(=O)OCC(=O)Nc2cccc(Cl)c2)cc1`: 16.1%.
For the compound `O=C(COC(=O)CCCN1C(=O)c2ccccc2C1=O)Nc1cc(Cl)cc(Cl)c1`, the “hERG current change (%, negative = inhibition) at 10uM” value is on record as -3.11%.
For the compound `Cc1cccc(C)c1N1C(=O)CCC(C)(C)C1=O`, the “hERG current change (%, negative = inhibition) at 10uM” value came to 18.3%.
As to `O=C(NCC(=O)N1CCN(c2ccccc2O)CC1)c1ccc2ccccc2c1`, the “hERG current change (%, negative = inhibition) at 10uM” value was 9.32%.
As to `C=CCOC(=O)C1=C(C)OC(N)=C(C#N)C1c1ccco1` (stereo not drawn), the “hERG current change (%, negative = inhibition) at 10uM” value is 12.7%.
Take `Cc1ccc(NC(=O)C2CCN(S(=O)(=O)c3ccc(Cl)c(C(F)(F)F)c3)CC2)nc1`: the “hERG current change (%, negative = inhibition) at 10uM” value is recorded as -16.4%.
On to `Cl.NC(=O)c1c(NC(=O)c2ccccc2)sc2c1CCN(Cc1ccccc1)C2`, for which the “hERG current change (%, negative = inhibition) at 10uM” value worked out at 7.85%.
The same measure for `CNS(=O)(=O)c1cn(CC(=O)NCc2ccc(F)cc2)cc1S(=O)(=O)NC`: 16.5%; for `S=c1[nH]nc(Cc2n[nH]c(=S)n2-c2ccccc2)n1-c1ccccc1`: 14.7%; for `COCC(C)N=CC1=C(O)CC(C)(C)CC1=O` (stereo not drawn): 12.8%.
Consider `c1ccc(CSc2nnc(-c3sccc3-n3cccc3)o2)cc1`, for which the “hERG current change (%, negative = inhibition) at 10uM” value was 0.0569%.
The same measure for `Cc1c(N2C(=O)/C(=C3/C(=O)N(C)c4ccccc43)SC2=S)c(=O)n(-c2ccccc2)n1C`: 4.14%; for `CCOC(=O)c1nccnc1C(=O)Nc1cccc(C(F)(F)F)c1`: -19.3%; for `CN(Cc1nc(-c2cnccn2)no1)CC(O)c1ccccc1` (stereo not drawn): 3.4%.
`CC(C)C(C(=O)Nc1ccc(N2CCOCC2)cc1)N1C(=O)c2ccccc2C1=O` (stereo not drawn): the “hERG current change (%, negative = inhibition) at 10uM” value is given as -5.2%.
On to `C#CC(CC)(CC)NC(=O)/C=C/C(=O)O`, for which the “hERG current change (%, negative = inhibition) at 10uM” value is recorded as 18%.
The value for `CN(CC(=O)Nc1ccccc1Cl)C(=O)CSc1ncc(C(F)(F)F)cc1Cl` was 9.55%; that for `O=C(Nc1nnc(-c2ccc(F)cc2)o1)C1CCCN1S(=O)(=O)c1cccs1` (stereo not drawn) was -14.1%; that for `C=CCn1c(C)nnc1SCC(=O)Nc1nccs1` was 16.6%.
As for `CCN(C(=O)COC(=O)c1cc([N+](=O)[O-])ccc1N1CCOCC1)C1CCS(=O)(=O)C1` (stereo not drawn), the “hERG current change (%, negative = inhibition) at 10uM” value is listed as 1.37%.
Turning to `NC(=S)N/N=C/c1cn(-c2ccccc2)nc1-c1cccnc1`, the “hERG current change (%, negative = inhibition) at 10uM” value came out at 11.8%.
With `Cc1cc(C)c2nc(N3CCCC(C(=O)NCCCN4CCOCC4)C3)sc2c1` (stereo not drawn), the “hERG current change (%, negative = inhibition) at 10uM” value is given as -7.17%.
The value for `c1ccc(CCn2cnc3ccccc32)cc1` was 10.1%; that for `FC(F)(F)Oc1ccccc1-c1nnc(-c2cccc(C(F)(F)F)c2)o1` was 3.84%.
The value for `O=C(Nc1ccccc1)c1ccc(COc2ccccc2)cc1` was 0.885%; that for `COC(=O)c1ccccc1NC(=O)c1cnc2sccn2c1=O` was 1.97%.
As to `CCC1(c2ccccc2)NC(=O)N(CC(=O)Nc2cc(Cl)ccc2N2CCN(C)CC2)C1=O` (stereo not drawn), the “hERG current change (%, negative = inhibition) at 10uM” value was -60.8%.
With `O=C(O)CCCCCNC(=O)/C=C/c1ccco1`, the “hERG current change (%, negative = inhibition) at 10uM” value came to 24.4%.
As for `CC(C)(C)c1ccc(CNC(=O)c2ccc3c(c2)NC(=O)CO3)cc1`, the “hERG current change (%, negative = inhibition) at 10uM” value is recorded as 4.11%.
Take `O=C(NCCc1c[nH]c2ccccc12)c1cc2sccc2n1Cc1ccccc1`: the “hERG current change (%, negative = inhibition) at 10uM” value is listed as 7.09%.
The same measure for `Cl.O.O=C1C2CCCCN2C(=O)N1CCCCN1CCN(c2ccccc2Oc2ccccc2)CC1` (stereo not drawn): -55.7%; for `COCCN(C(=O)Cc1cccs1)C(C(=O)NC1CCCC1)c1cc(OC)c(OC)c(OC)c1` (stereo not drawn): 8.79%; for `CC(NC(=S)Nc1ccccc1C(F)(F)F)C1CC2CCC1C2` (stereo not drawn): 46.4%.
Regarding `O=C(CN1CCN(C(=O)CNC(=O)c2ccc3c(c2)OCO3)CC1)Nc1ccccc1Cl`, the “hERG current change (%, negative = inhibition) at 10uM” value was -49.3%.
`CCn1cc(S(=O)(=O)c2ccc(C)cc2)[nH]c1=O`: the “hERG current change (%, negative = inhibition) at 10uM” value was 11.8%.
Take `Cc1ccccc1/C=N/NC(=O)Cn1cnc([N+](=O)[O-])n1`: the “hERG current change (%, negative = inhibition) at 10uM” value is recorded as -2.16%.
The value for `COc1ccnc(Oc2ccc3ccccc3c2)c1C#N` was 11.4%; that for `CC(=O)Nc1ccc(NC(=O)C(C)OC(=O)c2ccc3c(c2)OCCO3)cc1` (stereo not drawn) was 14.4%.
Regarding `Cc1ccc(C)c(C(C)NC(=O)c2ccncc2)c1` (stereo not drawn), the “hERG current change (%, negative = inhibition) at 10uM” value is reported as -7.4%.
For the compound `CC(NC(=O)CNC(=O)Cc1cccc2ccccc12)c1ccc(S(N)(=O)=O)cc1` (stereo not drawn), the “hERG current change (%, negative = inhibition) at 10uM” value was determined as 10.6%.
With `COc1ccc(/C(O)=C2/C(=O)C(=O)N(CCN(C)C)C2c2ccccc2)cc1Cl` (stereo not drawn), the “hERG current change (%, negative = inhibition) at 10uM” value was -0.935%.
As to `CCOc1ccc(S(=O)(=O)Nc2cc(C)ccn2)c2ccccc12`, the “hERG current change (%, negative = inhibition) at 10uM” value is given as 2.84%.
Take `CNc1c(C(=O)O)ccc2c1C(=O)c1ccccc1C2=O`: the “hERG current change (%, negative = inhibition) at 10uM” value was -0.756%.
As for `Cc1coc2cc3oc(=O)c(CCC(=O)N4CCC(C(=O)O)(c5ccccc5)CC4)c(C)c3cc12`, the “hERG current change (%, negative = inhibition) at 10uM” value is recorded as 0.933%.
The same measure for `Cc1cccc(Oc2ncnc3oc(-c4ccccc4)cc23)c1C`: -2.23%; for `O=C(Cn1cc(C(F)(F)F)cc(Cl)c1=O)Nc1cc(S(=O)(=O)N2CCOCC2)ccc1Cl`: 0.904%.
For `CCCc1cc(=O)[nH]c(SCCCCN2C(=O)c3ccccc3C2=O)n1`, the “hERG current change (%, negative = inhibition) at 10uM” value worked out at 14.5%.
For `Cn1ncc(C#N)c1/N=C/N(Cc1ccccc1)Cc1ccccc1`, the “hERG current change (%, negative = inhibition) at 10uM” value is recorded as -9.12%.
On to `COc1ccc(NC(=O)CN(C)C(=O)c2c(C)nn(-c3ccccc3)c2Cl)cc1`, for which the “hERG current change (%, negative = inhibition) at 10uM” value is -1.42%.
Consider `N#Cc1ccccc1NC(=O)C(=O)NCCCN1CCCC1=O`, for which the “hERG current change (%, negative = inhibition) at 10uM” value was -36.5%.
As to `Nc1c(-c2ccc(Cl)cc2)cnc2c(-c3ccc(F)cc3)cnn12`, the “hERG current change (%, negative = inhibition) at 10uM” value is 24%.
Take `COc1ccc(C)cc1S(=O)(=O)N(C)CC(=O)NC1CC1`: the “hERG current change (%, negative = inhibition) at 10uM” value came out at 9.54%.
The value for `Cc1cccc(N=c2oc3cc(O)ccc3cc2C(N)=O)c1` was -17.3%; that for `O=C(NCc1ccccc1F)C1CCCN1S(=O)(=O)c1ccc(Cl)cc1` (stereo not drawn) was -8.3%; that for `CC[C@@H]1CN(C)[C@H]2Cc3c([nH]c4ccccc34)C(=O)C[C@@H]1[C@@H]2C(=O)OC` was 11.8%.
The same measure for `COC(=O)[C@]1(Cc2ccccc2)N[C@H](c2ccc(-c3ccccc3)cc2)[C@@H]2C(=O)N(C)C(=O)[C@@H]21.O=C(O)C(F)(F)F`: 11.4%.
As for `Cc1nc(C)n(CCNC(=O)c2ccco2)n1`, the “hERG current change (%, negative = inhibition) at 10uM” value is 27%.
Regarding `CC(C)(C)n1nc2c(c1NC(=O)c1cccc(C(F)(F)F)c1)CS(=O)C2` (stereo not drawn), the “hERG current change (%, negative = inhibition) at 10uM” value is -7.23%.
In the case of `CCN(CC)c1nc2c(C)cccn2c(=O)c1C=C1C(=O)NC(=O)NC1=O`, the “hERG current change (%, negative = inhibition) at 10uM” value is given as 11.6%.
The value for `COc1ccc(C(=O)Nc2ccc3cn[nH]c3c2)c(OC)c1` was 12.6%; that for `Oc1[nH]c2ccccc2c1N=Nc1nncc2ccccc12` was -15%; that for `COC(=O)NNC(=O)c1ccc(Cl)cc1Cl` was 19.8%.
For `Cc1ccccc1OCCCCCn1ccnc1`, the “hERG current change (%, negative = inhibition) at 10uM” value was -25.7%.
The same measure for `O=C1CCC(=O)N1c1nc2n(n1)C(c1ccccc1)C=C(c1ccc(Br)cc1)N2` (stereo not drawn): 1.46%; for `CCN(CC)S(=O)(=O)c1ccc(C)c(NC(=S)Nc2cccc(S(=O)(=O)N3CCCCCC3)c2)c1`: -4.58%.
